The list shows a part of the results.
What follows are sequences tested against T1, OsWOX13 (Oryza sativa, UniProt Q5QMM3 1-267) (assay: protein-binding microarray (RPBM); PBS, 2% BSA, 51.3 ng/ul salmon testes DNA, 50 uM zinc acetate, 200 nM TF, 25 C, 1 h; high values mean tight binding). Settings: protein: recombinant; tags: N-terminal polyhistidine and DsRed monomer fusion (pET32a); label: CyDye5-dUTP incorporated in the synthesized complementary strand; 3' TTTTT single-stranded linker to array surface; dsDNA, one strand shown.
T1 sequence: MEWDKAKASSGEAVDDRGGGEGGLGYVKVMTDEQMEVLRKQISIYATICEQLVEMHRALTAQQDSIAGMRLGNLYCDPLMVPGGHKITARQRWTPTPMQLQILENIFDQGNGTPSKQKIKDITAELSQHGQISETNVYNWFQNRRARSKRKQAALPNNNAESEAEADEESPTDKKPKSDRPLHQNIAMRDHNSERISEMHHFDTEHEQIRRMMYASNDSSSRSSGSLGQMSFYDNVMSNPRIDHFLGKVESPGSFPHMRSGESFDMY
Outline: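 Ni–NTA purification followed expression in E. coli BL21-CodonPlus of transcription factors fused N-terminally to a polyhistidine tag and DsRed. At 200 nM in PBS with 2% BSA, salmon testes DNA and 50 µM zinc acetate, the protein was incubated for 1 h at 25 °C with a custom Agilent array that had been primer-extended with Cy5-dUTP and blocked with 2% BSA. After washing, the array was read on an Axon 4000B scanner. The binding signal is per-feature fluorescence intensity in arbitrary units.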

Compared with “GAGCCCACATTGATTTGAAGGTTCAAACTTTGTAACTTTTCGGAGTCACCTAGTGCAG”, “CTCTACAGTAAATCAAACAGTAATCACACTCCAAACAAAACGGAGTCACCTAGTGCAG” is higher in binding signal: 5060 fluorescence intensity (a.u.) for the first, 5420 fluorescence intensity (a.u.) for the second.

Going from “ATCAATTAATTTATCGTGCAGCCCATGGTTTGCACTTTAGCGGAGTCACCTAGTGCAG” to “ACCGATAAATAGATGAATTTCCCAACTAAAGCTGGCGACTCGGAGTCACCTAGTGCAG”, the binding signal falls from 26800 fluorescence intensity (a.u.) to 8370 fluorescence intensity (a.u.).

Going from “TATATATATATATATATATAGACACACACATCAACAACAACGGAGTCACCTAGTGCAG” to “TCACATTGTACAATCACCTAGAAATTTGCTCACTTCCATGCGGAGTCACCTAGTGCAG”, the binding signal falls from 16000 fluorescence intensity (a.u.) to 3300 fluorescence intensity (a.u.).

First: ATCGATAACATAATTAAAGTTAAGAAAAGAATTAGATCTACGGAGTCACCTAGTGCAG
Second: CCTGATTGGAAGATGCTTGACGGAATATATGCAATAACTGCGGAGTCACCTAGTGCAG
The binding signal of the first is lower: 9440 fluorescence intensity (a.u.) for the first, 42700 fluorescence intensity (a.u.) for the second.

First: ACGTGATAGCAATTTAATAAATTTTAAGTAAAATCATACTCGGAGTCACCTAGTGCAG
Second: TTCCTTGAATGAATAGACTAACTTATTGTTGCTAGAGTTTCGGAGTCACCTAGTGCAG
The binding signal of the first is higher: 32900 fluorescence intensity (a.u.) for the first, 4880 fluorescence intensity (a.u.) for the second.

Going from “AGTAGTTAATTGCTTTTGATTGACTTGACTGAGTTTGTGTCGGAGTCACCTAGTGCAG” to “AAAAGCAGGTTTACTTACGCCTCATGTTCTCACACTAATTCGGAGTCACCTAGTGCAG”, the binding signal falls from 43900 fluorescence intensity (a.u.) to 24400 fluorescence intensity (a.u.).

First: TTAAGAGAGACGATTCAATCAAGAGCGAGAGAGGAGGGAGCGGAGTCACCTAGTGCAG
Second: ATTTCAATTATATATGGTGCATGCATGGCATCCACGCCTCCGGAGTCACCTAGTGCAG
The binding signal of the first is lower: 4920 fluorescence intensity (a.u.) for the first, 9260 fluorescence intensity (a.u.) for the second.

Going from “ACTGACACTGATTGTACCAGTATAACAAGCAACACATACACGGAGTCACCTAGTGCAG” to “ACACAGACTTAATTTGTAAGTTTTGTGGCAGTCAAACAAGCGGAGTCACCTAGTGCAG”, the binding signal falls from 23900 fluorescence intensity (a.u.) to 10300 fluorescence intensity (a.u.).

First: CGCGCCTGTCTGTCTCTGTTTGATTGATTCTTCTACGTCGCGGAGTCACCTAGTGCAG
Second: CTTTGACATAAGAAACAAATCTTAGTTCAGTTCTCCATCTCGGAGTCACCTAGTGCAG
The binding signal of the first is higher: 19300 fluorescence intensity (a.u.) for the first, 6830 fluorescence intensity (a.u.) for the second.

First: TACCCATCACCAAAATTACCATAAACACAACATACTTAGGCGGAGTCACCTAGTGCAG
Second: TGAAATGGTTAAATGATTTGGGTTGAAATATTATGAAAATCGGAGTCACCTAGTGCAG
The binding signal of the first is higher: 4380 fluorescence intensity (a.u.) for the first, 3220 fluorescence intensity (a.u.) for the second.

Going from “TGTTAAACTGAATATATAAATTTTATCTTTGACAAGCACTCGGAGTCACCTAGTGCAG” to “GTTTGATTTCGATTGAAGCCTATTCATTGGTAATACGTAACGGAGTCACCTAGTGCAG”, the binding signal falls from 27800 fluorescence intensity (a.u.) to 13300 fluorescence intensity (a.u.).

Going from “AAACTTCATTTAGTAGATTGATTTTCTTAACCGAATATAGCGGAGTCACCTAGTGCAG” to “AATTAAACTGCAAATTAAGCTTATTTCATGCTATGTTTAACGGAGTCACCTAGTGCAG”, the binding signal rises from 9560 fluorescence intensity (a.u.) to 16400 fluorescence intensity (a.u.).

Compared with “TACTAATGATTTTATGTAGAACATCATCACATATCTTATACGGAGTCACCTAGTGCAG”, “GAGGGTTTTAATTACTCACTGACATGTAGGGTCACGGGGTCGGAGTCACCTAGTGCAG” is lower in binding signal: 15800 fluorescence intensity (a.u.) for the first, 6310 fluorescence intensity (a.u.) for the second.

Compared with “TAAAATTGGAGTTTGTAAAGCTTGTTTCTTGTACGGGAATCGGAGTCACCTAGTGCAG”, “ATTAATTACTCACCTAAACCATGCACTACACTTGAACAGACGGAGTCACCTAGTGCAG” is higher in binding signal: 9110 fluorescence intensity (a.u.) for the first, 17400 fluorescence intensity (a.u.) for the second.

First: TGTTAGCTGATTAGGATGCCACGTCAGCTAAACCAGCTATCGGAGTCACCTAGTGCAG
Second: CTACCATAATTAATCACAAGTGCAGGTTGCTGCTGGGCGTCGGAGTCACCTAGTGCAG
The binding signal of the first is lower: 11100 fluorescence intensity (a.u.) for the first, 12900 fluorescence intensity (a.u.) for the second.

Compared with “AATTAATTTCTAAATACAATCATTATTCACCTCGTAATATCGGAGTCACCTAGTGCAG”, “ATAAAATTGCCACGTAAGTAATTTTATCAGACTAACCAACCGGAGTCACCTAGTGCAG” is lower in binding signal: 7210 fluorescence intensity (a.u.) for the first, 6280 fluorescence intensity (a.u.) for the second.

First: CACAAACTATGATTATACGTACTACGACTAATGAAAGTTTCGGAGTCACCTAGTGCAG
Second: GAGACATTAGCACATGATTAATTGAGTATAAACTATTTTACGGAGTCACCTAGTGCAG
The binding signal of the first is lower: 10100 fluorescence intensity (a.u.) for the first, 12900 fluorescence intensity (a.u.) for the second.

First: AAATCTTAATTGAAGTGTAGTGGTAGTTTGTATGTTAGTTCGGAGTCACCTAGTGCAG
Second: TTAACAAAATTAACAAATTTTGTGCCAAAAGAGACAAGGCCGGAGTCACCTAGTGCAG
The binding signal of the first is higher: 27700 fluorescence intensity (a.u.) for the first, 18800 fluorescence intensity (a.u.) for the second.

First: AGAATTAAATAGGGGAAAATTGTTATTGATTGAAAAGTGGCGGAGTCACCTAGTGCAG
Second: TTTGTTATAATTTTAATTTACACGTTGCAACGCACGGATACGGAGTCACCTAGTGCAG
The binding signal of the first is higher: 34400 fluorescence intensity (a.u.) for the first, 5680 fluorescence intensity (a.u.) for the second.

Compared with “GTATAACAGAATTTTGAGTTATCATCCCATTTGTATATTCCGGAGTCACCTAGTGCAG”, “CAGATTATAATTGTCGACGCTATTTGTGATCCCGTGCATGCGGAGTCACCTAGTGCAG” is higher in binding signal: 3950 fluorescence intensity (a.u.) for the first, 23500 fluorescence intensity (a.u.) for the second.

Compared with “GTATAATTCATGGTTGATATTTGTTATTGTCTTTGTTTCTCGGAGTCACCTAGTGCAG”, “GATCAATTATGATAGAGACCAATTTGGCACCTCTGTGATTCGGAGTCACCTAGTGCAG” is higher in binding signal: 5480 fluorescence intensity (a.u.) for the first, 24100 fluorescence intensity (a.u.) for the second.

Reference: publication PMC7819943, “Rice protein-binding microarrays: a tool to detect cis-acting elements near promoter regions in rice”
